Among all 390,000 compounds or so, about 610 (0.16%) were called active. Roughly 4% stayed inconclusive and do not appear here. Calls follow the shape of the dose curve; as a rule, active = well fitted inhibition curve with a large enough effect; inconclusive = small, poorly fitted or top-dose-only effect, or effect the other way, or another doubt; inactive = no such curve, though single readings can be large or run the other way. This is a selection; strong and weak results do not stand in their true shares. Some structures have more than one record in an assay (separate samples or runs), and their calls can disagree.
% is scaled to controls: 0 for no effect and ±100 for the full control effect; potency is read from the fitted curve at half-maximal effect.

A short description of the experiment: Nrf2 qHTS screen for inhibitors: counterscreen for cytotoxicity. As to conditions: A549 ARE-Fluc cells, CellTiter-Fluor viability, 18-24 h; series mostly up to 46 µM; activity change, negative = cytotoxicity: at the top concentration. A digest of the protocol: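 A549 ARE-Fluc cells in 5% FBS OPTI-MEM, 5000 cells/well, rested 2 h then exposed to compounds in concentration-response for 18-24 h at 37 °C. Viability by CellTiter-Fluor fluorescence (Ex 405/Em 525) after 30 min; luciferase luminescence (BugLite, 15 min, RT) read afterwards.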
On the technique in general: Quantitative high-throughput screening tests each substance at several concentrations.
For `O=C(N[C@@H]1C/C=C\C[C@@H](CC(=O)N(CCO)Cc2ccccc2)C(=O)N[C@H](Cc2ccccc2)COC1=O)OCC1c2ccccc2-c2ccccc21`, the “activity change, negative = cytotoxicity” value is inactive: -2.56%. As to `COc1ccc2c(c1)N(C)/C(=C/c1cccc[n+]1C)S2`, the Potency is active: 16.4 µM. Still for that read-out and setting: under `COc1cc2c(=O)c(C(=O)c3ccc(C)c(C)c3)cn(Cc3ccccc3F)c2cc1OC` stands active: 20.6 µM.

Regarding `COc1cc(OC)c2c(c1C(CCN1CCOCC1)c1ccc(N(C)C)cc1)OC(=O)CC2c1ccc(N(C)C)cc1` (stereo not given), the “activity change, negative = cytotoxicity” value was inactive: -0.546%.

Take `C=CCC[C@H](Cc1ccc(F)cc1)C(=O)OC[C@H](C)NC(=O)[C@@H](CC=C)CC(=O)N[C@H](CO)Cc1ccccc1`: the “activity change, negative = cytotoxicity” value is inactive: -3.89%. As to `CCc1ccc(NC(=O)C(NS(=O)(=O)c2cccc3nsnc23)c2ccccc2)cc1` (stereo not given), the “activity change, negative = cytotoxicity” value is inactive: -6.86%. With `COc1ccc(CNc2ncnc3nc[nH]c23)cc1OC`, the “activity change, negative = cytotoxicity” value is inactive: 8.32%. Same read-out and setting: under `CCOC(=O)/C(C#N)=C/c1c(OCC)n(CC)c2ccccc12` stands inactive: -9.97%; under `O=C1/C(=C\c2ccco2)SC(=S)N1C1CCS(=O)(=O)C1` (stereo not given), inactive: -16.6%. On to `C=CCC[C@H](Cc1ccc(F)cc1)C(=O)OC[C@@H](Cc1c[nH]c2ccccc12)NC(=O)[C@@H](CC=C)CC(=O)N(CCO)Cc1ccccc1`, for which the Potency was active: 11.6 µM. As for `COc1ccccc1[C@]1(C)ON(c2ccccc2C(F)(F)F)C1=O`, the “activity change, negative = cytotoxicity” value is inactive: -12.1%. For the compound `O=C(Nc1nc2ccc([N+](=O)[O-])cc2s1)c1ccc(S(=O)(=O)N2CCCc3ccccc32)cc1`, the Potency was active: 9.2 µM. In the case of `CC(C)NC[C@H](O)COc1ccc(CC(N)=O)cc1`, the “activity change, negative = cytotoxicity” value was inactive: -1.63%. For the compound `c1cnc2c(c1)ccc1cccnc12`, the “activity change, negative = cytotoxicity” value is inactive: -29.2%. Turning to `COc1cc(/C=C(\C#N)c2nc3ccccc3s2)cc([N+](=O)[O-])c1O`, the Potency is active: 20.6 µM. For `O=C(CCl)Nc1cc(SCC(O)CO)cc([N+](=O)[O-])c1` (stereo not given), the Potency was active: 6.51 µM. As for `Cc1cccc(NC(=O)COc2ccc(-c3nn(C)c(=O)c4ccccc34)cc2)c1`, the “activity change, negative = cytotoxicity” value was inactive: -21.2%. As for `Cc1ccc(S(=O)(=O)/N=C2\C=C(Nc3ccc(O)cc3)C(=O)c3ccccc32)cc1`, the Potency was active: 16.4 µM. For the compound `Cc1cccc(NC(=O)Cn2cc(C(=O)c3ccco3)c3ccccc32)c1`, the “activity change, negative = cytotoxicity” value is inactive: -19.5%. For the compound `Cc1ccc(F)c([C@H]2[C@@H]3C=CCC[C@@]3(C)C(=O)N2Cc2ccccc2)c1`, the “activity change, negative = cytotoxicity” value was inactive: 5.86%.

For the compound `O=C(NC(Cc1ccccc1)C(=O)O)/C(=C/c1ccc(Br)cc1)NC(=O)c1ccc(Br)o1` (stereo not given), the “activity change, negative = cytotoxicity” value is inactive: 5.2%.

For `CC(C)OCCCN(C)C1CCN(S(=O)(=O)c2csc(C(N)=O)c2)CC1`, the “activity change, negative = cytotoxicity” value is inactive: -0.126%. On the same count and under the same terms, under `CC1OC(Oc2c(-c3cc(O)c(O)c(O)c3)oc3cc(O)cc(O)c3c2=O)C(O)C(O)C1O` (stereo not given) stands inactive: -12.2%; under `COc1ccc(NC(=O)CSc2c3c(nc4ccccc24)CCC3)c(OC)c1`, inactive: -7.78%.

On to `O=c1cc(-c2ccc(O)c(O)c2)oc2cc(O)c(C3OC(CO)C(O)C(O)C3O)c(O)c12` (stereo not given), for which the “activity change, negative = cytotoxicity” value was inactive: -1.16%. Same read-out and setting: under `CCC1CN(S(=O)(=O)c2cc(-c3cc(C)no3)ccc2OC)c2cc(C)ccc2O1` (stereo not given) stands inactive: 27.8%; under `CCOC(=O)CCCC(=O)Nc1ncnc2c1C(c1ccccc1)c1c(ccc3ccccc13)O2` (stereo not given), inactive: -0.414%; under `CC1=NN(c2ccccc2)C(=O)/C1=C\C=C1\N(C)c2ccccc2C1(C)C`, inactive: -17.3%. On the same count and under the same terms, in the case of `O=C(C1CCC(CNS(=O)(=O)c2cccs2)CC1)N1CCN(c2ccc(Cl)cc2)CC1` (stereo not given) it was inactive: -11.6%.

For the compound `OCC1OC(n2ccc3c(NO)ncnc32)C(O)C1O` (stereo not given), the Potency is active: 2.06 µM.

On to `CCOc1ccc(CCNC(=O)CN2C(=O)c3cccnc3Oc3ccc(Cl)cc32)cc1`, for which the “activity change, negative = cytotoxicity” value was inactive: 3.27%. On the same count and under the same terms, under `C=CC[C@H](CC(=O)N[C@H](CO)Cc1ccccc1)C(=O)N[C@H](COC(=O)[C@H](CC=C)CC(=O)OC(C)(C)C)Cc1c[nH]c2ccccc12` stands inactive: -14%; under `O=C(C[C@H]1C/C=C\C[C@@H](NC(=O)OCC2c3ccccc3-c3ccccc32)C(=O)O[C@@H](c2ccccc2)CNC1=O)N[C@H](CO)Cc1ccccc1`, inactive: -22.8%; under `COc1cc(C(CCN2CCN(c3ccccc3)CC2)c2c(OC)cc(OC)c3c(C)cc(=O)oc23)cc(OC)c1OC` (stereo not given), inactive: -18%.

`C/C=C(\C)C(=O)OC1CC(C)(C)C[C@H]2C3=CC[C@@H]4[C@@]5(C)CCC(O[C@@H]6O[C@@H](C(=O)O)[C@@H](O)C(O[C@@H]7OC[C@H](O)[C@@H](O)[C@@H]7O[C@@H]7OC(CO)C(O)[C@@H](O)[C@@H]7O)C6O[C@@H]6OC(CO)C(O)C(O)C6O)[C@@](C)(CO)[C@@H]5CC[C@]4(C)[C@]3(C)CC(O)[C@@]12CO` (stereo not given in full): the “activity change, negative = cytotoxicity” value is inactive: -21.6%.

`O=C(C[C@H]1C/C=C\CC[C@@H](Cc2ccc(F)cc2)C(=O)OC[C@H]2CCCN2C1=O)N[C@H](CO)Cc1ccccc1`: the “activity change, negative = cytotoxicity” value is inactive: 2.41%.

As for `Cc1nnc(N2CCC(C(=O)NC3CCC(C)CC3)CC2)c2nn(-c3ccc(Cl)cc3)c(C)c12` (stereo not given), the “activity change, negative = cytotoxicity” value was inactive: 1.97%. In the case of `CCN(CC)C(=O)CC(c1ccc(OC)cc1)c1c(OC)cc(OC)c2ccc(=O)oc12` (stereo not given), the “activity change, negative = cytotoxicity” value is inactive: -2.21%. Take `Cc1ccc2nc(/N=C(\N)NC(=O)NC3CCCCC3)nc(C)c2c1`: the Potency is active: 23.1 µM. For the compound `CCN1CCN(c2c(S(=O)(=O)c3ccc(C)c(C)c3)cnc3ccc(F)cc23)CC1`, the “activity change, negative = cytotoxicity” value was inactive: 5.34%. On to `O=C(Nc1cccc(O)c1)c1noc2c1CCc1ccccc1-2`, for which the “activity change, negative = cytotoxicity” value is inactive: -1.47%. For `Cc1ccc(-n2nc3c(N4CCC(C(=O)NCCc5ccccc5C)CC4)nnc(C)c3c2C)cc1`, the “activity change, negative = cytotoxicity” value was inactive: -4.39%. On the same count and under the same terms, in the case of `Cc1noc(NS(=O)(=O)c2ccc(N/C=C\C(=O)c3ccccc3)cc2)c1C` it was inactive: -6.11%.

As for `COc1ccc(Br)cc1/C=C/C(=O)c1ccc(NC(C)=O)cc1`, the Potency is active: 8.2 µM. Same read-out and setting: under `COC(=O)c1cc2c(n1S(=O)(=O)c1ccc(C)cc1)C(=O)C(=O)c1[nH]cc(C(=O)OCc3ccccc3)c1-2` stands active: 4.11 µM. On to `c1ccc([C@H]2CC3C[C@@H](c4ccccc4)N2O3)cc1`, for which the “activity change, negative = cytotoxicity” value was inactive: 1.08%. On the same count and under the same terms, in the case of `CC1(C)c2[nH]c3ccccc3c2C[C@@H]2C(=O)N(Cc3ccc(F)cc3)C(=O)N21` it was inactive: -8.1%. As for `Cn1nc(-c2cccnc2)nc2c(=O)n(C)c(=O)nc1-2`, the Potency is active: 6.51 µM. In the case of `O=C(N/C(=C/c1ccc(Br)cc1)c1nc2ccccc2[nH]1)c1ccco1`, the “activity change, negative = cytotoxicity” value was inactive: -4.75%. Still for that read-out and setting: under `C=CCC[C@@H](Cc1ccc(F)cc1)C(=O)OC[C@@H](Cc1c[nH]c2ccccc12)NC(=O)[C@@H](CC=C)CC(=O)N[C@H](CO)Cc1ccccc1` stands inactive: -19.5%; under `C[C@@H](NC(=O)c1nc[nH]c1C(=O)N[C@@H](Cc1ccccc1)C(=O)OC(C)(C)C)c1ccccc1`, inactive: -25.3%; under `COc1cccc(C2c3c(ncn(-c4ccccc4)c3=N)Oc3ccc4ccccc4c32)c1` (stereo not given), inactive: -17.3%.

`COc1ccccc1C1c2c(ncn(-c3ccccc3)c2=N)Oc2ccc3ccccc3c21` (stereo not given): the Potency was active: 20.6 µM. As for `Cc1sc(-n2c(C)cc(/C=C3\SC(=S)NC3=O)c2C)c(C#N)c1C`, the Potency is active: 20.6 µM. `O=C1N[C@@H](c2ccccc2)COC(=O)[C@H](Cc2ccc(F)cc2)C/C=C\C[C@H]1CC(=O)N(CCO)Cc1ccccc1`: the “activity change, negative = cytotoxicity” value was inactive: 2.41%. As to `Cc1cccc(/C=C/c2onc(C)c2[N+](=O)[O-])n1`, the Potency was active: 18.4 µM.

With `Cc1cccc(Nc2nnc(SCC(O)=C(C#N)c3nc4ccccc4[nH]3)s2)c1`, the “activity change, negative = cytotoxicity” value is inactive: -10.2%. On to `O=C(CN1CCN(c2ccc(Cl)cc2)CC1)Nc1ccc(F)c(F)c1`, for which the “activity change, negative = cytotoxicity” value was inactive: -0.389%. The same measure, in the same setting: under `Cc1ccc(O)c([C@H](CCN(C(C)C)C(C)C)c2ccccc2)c1` stands inactive: -7.16%; under `CC(C)(C)[C@@H]1COC(=O)[C@H](Cc2ccc(F)cc2)CC/C=C\C[C@@H](CC(=O)N(CCO)Cc2ccccc2)C(=O)N1`, inactive: -8.15%; under `COc1ccc(C)cc1NS(=O)(=O)c1ccc(-c2cnc(C3CC3)o2)cc1`, inactive: -8.63%. Turning to `Cc1nnc(Sc2cc(NCCO)c([N+](=O)[O-])c3nonc23)s1`, the Potency is active: 25.9 µM. On to `COc1ccc(N(C)C(=O)c2oc(=O)c3ccccc3c2-c2ccc(C)cc2)c(OC)c1`, for which the “activity change, negative = cytotoxicity” value was inactive: -0.107%. Same read-out and setting: in the case of `CCO[C@H]1OC(C(=O)N2CCN(Cc3ccc4c(c3)OCO4)CC2)=C[C@@H](c2ccc(C(F)(F)F)cc2)[C@@H]1CCCO` it was inactive: -16.3%; in that of `O=C(C[C@H]1C/C=C\CC[C@H](Cc2ccc(F)cc2)C(=O)OC[C@H]2CCCN2C1=O)N[C@@H](CO)Cc1ccccc1`, inactive: -6.08%.

Consider `CC(C)(C)[C@@H]1COC(=O)[C@H](Cc2ccc(F)cc2)CC/C=C\C[C@H](CC(=O)N(CCO)Cc2ccccc2)C(=O)N1`, for which the “activity change, negative = cytotoxicity” value is inactive: -15.6%.

With `CCC1CN(C(=O)NCc2ccccc2)c2cc(C)ccc2O1` (stereo not given), the “activity change, negative = cytotoxicity” value is inactive: 0.27%. Take `COc1cc2c(c(OC)c1OC)-c1ccc(OC)c(=O)cc1[C@@H](NC(C)=O)CC2`: the “activity change, negative = cytotoxicity” value was inactive: -12.6%. Same read-out and setting: in the case of `N=c1c2c(ncn1CCN1CCOCC1)Oc1ccc3ccccc3c1C2c1ccccc1` (stereo not given) it was inactive: -4.88%; in that of `O=C(CCCN1C(=O)/C(=C\c2cccs2)SC1=S)Nc1cccnc1`, inactive: -25.9%; in that of `C=CC[C@@H](CC(=O)N[C@@H](CO)Cc1ccccc1)C(=O)NC[C@@H](OC(=O)[C@@H](CC=C)Cc1ccc(F)cc1)c1ccccc1`, inactive: -6.8%.

For the compound `O=C1/C(=C\c2cccs2)N=C(c2cccs2)N1Nc1ccccc1`, the “activity change, negative = cytotoxicity” value was inactive: -17.8%. Take `CC(NC(=O)COC(=O)CCc1ccccc1)c1ccccc1` (stereo not given): the Potency is active: 23.1 µM. As for `O=C(NCc1ccccc1)C1=C[C@@H](c2csc3ccccc23)C[C@@H](OCCCCO)O1`, the “activity change, negative = cytotoxicity” value is inactive: -13.2%. As to `C/C(N)=C(/C#N)C(=O)CSc1n[nH]c(-c2ccccc2Br)n1`, the “activity change, negative = cytotoxicity” value is inactive: 7.7%. Still for that read-out and setting: under `Cn1cccc1C(=O)NC(=O)COC(=O)c1ccc(S(C)(=O)=O)c([N+](=O)[O-])c1` stands inactive: -7.16%. Turning to `COc1cc(/C=C2\SC(=O)N(c3cccc(Cl)c3)C2=O)cc([N+](=O)[O-])c1O`, the Potency is active: 13 µM. Turning to `O=C1NC[C@H](c2ccccc2)OC(=O)[C@H](Cc2ccc(F)cc2)C/C=C\C[C@@H]1CC(=O)N(CCO)Cc1ccccc1`, the “activity change, negative = cytotoxicity” value is inactive: -10.1%. Consider `CCOC(=O)c1ccc(NC(=O)c2nc(S(=O)(=O)Cc3ccccc3)ncc2Cl)cc1`, for which the “activity change, negative = cytotoxicity” value is inactive: -29%. Take `O=C1c2ccccc2-c2onc3c(N4CCN(CCO)CC4)cc(N4CCN(C(=O)c5ccco5)CC4)c1c23`: the Potency was active: 20.6 µM.

The values are drawn from PubChem BioAssay AID504648 (National Center for Advancing Translational Sciences (NCATS), 2011).
